# Data from publication PMC4336329 (PLoS ONE, 2015).
# Screen size: about 310,000 compounds; about 2,200 (0.71%) showed an effect of 50% or more. Effects have a minus sign here. Some of the results follow.
# Molecular target: human ether-à-go-go-related gene (hERG) potassium channel (human, UniProt Q12809)
# Assay: primary screen, population patch clamp on CHO cells stably expressing hERG
# Method: Briefly, Chinese hamster ovary (CHO) cells stably expressing the hERG channel were dislodged from tissue culture flasks and dispensed into PPC plates. […] During the recording, background leak currents were estimated by a 100 ms step to -80 mV from an initial holding potential of -70 mV and subtracted from the subsequent current measurement. The campaign was conducted in two phases using slight differences in recording protocol. In the first phase, the initial voltage pulse used a 100 ms step to -30 mV from a holding potential of -70 mV, a 2 s conditioning step to +25 mV, and a 2 s test step to -30 mV. During the second phase of the screen, the potential during the conditioning step was raised to +45 mV. In both phases of the campaign, a secondary voltage pulse was applied using the same parameters as the second phase initial pulse. The initial and secondary pulses were applied in the absence of compound, and upon application of 1 μM and 10 μM test concentrations. Small molecule effects on hERG current density were quantified by […].
# Chain of human ether-à-go-go-related gene (hERG) potassium channel (Q12809 whole entry, looked up): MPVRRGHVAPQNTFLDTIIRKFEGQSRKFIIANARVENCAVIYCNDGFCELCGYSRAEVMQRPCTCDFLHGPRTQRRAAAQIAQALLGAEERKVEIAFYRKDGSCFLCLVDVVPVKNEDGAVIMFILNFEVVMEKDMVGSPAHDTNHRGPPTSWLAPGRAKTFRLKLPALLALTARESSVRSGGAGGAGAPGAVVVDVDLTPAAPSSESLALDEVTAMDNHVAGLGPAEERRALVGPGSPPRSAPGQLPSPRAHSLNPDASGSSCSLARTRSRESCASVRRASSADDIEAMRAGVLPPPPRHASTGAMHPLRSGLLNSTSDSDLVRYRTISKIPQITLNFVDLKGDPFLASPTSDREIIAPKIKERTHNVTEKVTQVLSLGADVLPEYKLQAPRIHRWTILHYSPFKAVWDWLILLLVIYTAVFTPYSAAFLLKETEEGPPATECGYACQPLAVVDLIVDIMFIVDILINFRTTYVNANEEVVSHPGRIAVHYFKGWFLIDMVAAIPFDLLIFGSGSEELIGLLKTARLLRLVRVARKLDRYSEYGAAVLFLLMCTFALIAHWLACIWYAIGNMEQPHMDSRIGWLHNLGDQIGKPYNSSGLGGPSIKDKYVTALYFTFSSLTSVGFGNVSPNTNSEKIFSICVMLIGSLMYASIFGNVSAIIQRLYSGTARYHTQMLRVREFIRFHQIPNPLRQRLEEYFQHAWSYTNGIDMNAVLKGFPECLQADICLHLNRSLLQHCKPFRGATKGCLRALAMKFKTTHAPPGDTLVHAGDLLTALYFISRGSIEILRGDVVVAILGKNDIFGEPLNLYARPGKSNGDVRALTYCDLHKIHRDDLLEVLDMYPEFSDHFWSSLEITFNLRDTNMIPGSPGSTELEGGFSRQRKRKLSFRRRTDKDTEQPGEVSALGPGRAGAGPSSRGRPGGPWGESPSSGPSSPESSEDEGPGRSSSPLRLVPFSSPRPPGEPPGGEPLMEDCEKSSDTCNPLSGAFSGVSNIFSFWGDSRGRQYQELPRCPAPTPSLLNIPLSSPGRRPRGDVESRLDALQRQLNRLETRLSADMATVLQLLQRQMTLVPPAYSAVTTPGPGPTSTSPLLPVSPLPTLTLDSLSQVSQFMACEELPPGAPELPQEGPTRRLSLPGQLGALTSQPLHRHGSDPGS
row,Compound,"hERG current change (%, negative = inhibition) at 1uM [%]"
1,NC(=S)NN=C(c1ccccc1)c1ccccc1,7.98
2,Cc1ccc(NC(=O)C2=CC(c3ccc(C)cc3)=NS(=O)(=O)N2C)cc1,-1.75
3,CN(C)S(=O)(=O)c1ccc(Cl)c(NC(=O)CN2CCC(Cc3ccccc3)CC2)c1,11.2
4,COC(=O)CCC(=O)Nc1ccc(NC(=O)CCC(=O)OC)cc1,8.4
5,CCOc1ccc(NS(=O)(=O)c2ccc(NS(C)(=O)=O)cc2)cc1,2.94
6,CC(Sc1nncn1C)C(=O)Nc1ccc(S(N)(=O)=O)cc1 (stereo not drawn),16.2
7,CCCCCCOc1ccc(OC(=O)c2cccnc2)cc1,21.5
8,Cc1csc(NC(=O)Cc2ccc(F)cc2)n1,20.4
9,CC(C)CNC(=O)c1cccc(NC(=O)c2ccc(NC(=O)c3ccco3)cc2)c1,-26.1
10,COc1ccccc1CNS(=O)(=O)c1cccc(S(=O)(=O)N2CCOCC2)c1,9.34
11,COc1cccc(NC(=S)N/N=C2\CC(C)(C)Oc3ccc(O)cc32)c1,7.24
12,Cc1ccc(CNC(=O)c2ccc(C)s2)cc1,10.4
13,O=C(CSc1ncnc2sccc12)Nc1ccccc1F,1.66
14,CSc1ccc(/C=C/C(=O)Nc2ccccc2)cc1,-2.5
15,Cc1ccc(-n2c(SCC(=O)N/N=C/c3ccccc3C(=O)O)nnc2-c2ccccc2)cc1,7.87
16,C/C(=C\C(=O)c1ccccc1)Nc1ccc2c(c1)OCO2,3.23
17,CCOC(=O)N1CCC(N2CCN(Cc3ccc(F)c(F)c3)C(CCO)C2)CC1 (stereo not drawn),-13.5
18,Cn1c(NC(=O)c2cc(Br)ccc2Cl)cc(=O)n(C)c1=O,14.5
19,CCOc1ccc(S(=O)(=O)N2CCOCC2)cc1NC(=O)c1ccc(N2CCCC2=O)cc1,14.6
20,O=C(C1CC(c2ccc(F)cc2)=NO1)N1CCc2ccccc2C1 (stereo not drawn),1.62
21,Cc1cccc(NC(=S)N2CCN(S(=O)(=O)c3ccc(F)cc3)CC2)c1,15.1
22,COc1ccc(CNS(=O)(=O)c2ccc(S(=O)(=O)NC3CC3)cc2)cc1,8.69
23,O=C(NCCCc1ccc(F)cc1)C1CCC(=O)N(CCN2CCOCC2)C1 (stereo not drawn),6.87

row,Compound,"hERG current change (%, negative = inhibition) at 1uM [%]"
1,CN(C)c1nc(NN)nc(Nc2ccc(F)cc2)n1,-2.32
2,Cc1ccc(/C=C2\SC(=S)N(NS(=O)(=O)c3ccc(C)cc3)C2=O)cc1,14.6
3,Cc1ccccc1OCC(=O)OCC(=O)c1ccc(-c2ccccc2)cc1,10.9
4,COc1ccc(N2CCN(C(=O)CSc3nnc4nc(C)cc(C)n34)CC2)cc1,-2.98
5,Cc1ccc(Nc2ccc(-n3ccnc3)nn2)cc1C,1.01
6,O=C(COc1ccc(Cl)cc1Cl)NCCC1=CCCCC1,2.04
7,CC(O)COc1ccc(/C(=N/O)c2ccccc2)cc1 (stereo not drawn),18.4
8,CCN(C(=O)CSc1nnc(-c2ccco2)n1Cc1ccccc1)C1CCS(=O)(=O)C1 (stereo not drawn),6.22
9,COC(=O)C(C)Sc1nc2c(cnn2-c2ccccc2)c(=O)[nH]1 (stereo not drawn),12.9
10,Cc1nc2ccccc2n1CC(O)COC1CCCCC1 (stereo not drawn),2.56
11,COc1ccc(-c2cc(C(=O)OC(C)C(=O)Nc3c(C)n(C)n(-c4ccccc4)c3=O)c3ccccc3n2)cc1 (stereo not drawn),-3.79
12,CC(C)(C)c1ccc(C(=O)Nc2nnc(C3=COCCO3)o2)cc1,18
13,COc1ccc(N2CCN(C(=O)CCNS(=O)(=O)c3cc(Br)cnc3N)CC2)cc1,2.98
14,CCn1cnc2sc(C(=O)N3CCN(Cc4ccc5c(c4)OCO5)CC3)c(C)c2c1=O,10.5
15,Cc1cc(C)cc(OC(=O)C23CCC(C)(C(=O)O2)C3(C)C)c1 (stereo not drawn),5.55
16,Cc1cc(C)n2nc(SCc3cc(=O)oc4cc(O)ccc34)nc2n1,4.5
17,COc1cc(CNC2CCCCC2OC)cc(OC)c1OC (stereo not drawn),12.5
18,N#Cc1ccc(NC(=S)NC(=O)CCc2ccc(S(=O)(=O)N3CCOCC3)cc2)cc1,17.7
19,COC(=O)c1ccc(COC(=O)CNC(=O)CNC(=O)c2ccc(C)cc2)cc1,8.41
20,Cc1ccc(-n2nnnc2SCC(N)=O)c(C)c1,17.2
21,COc1ccc2c(c1)CC/C2=N\OC(=O)c1ccccc1C,8.06
22,Cc1cc(C)c(NC(=S)N(CCCN2CCN(C)CC2)Cc2cccs2)c(C)c1,-2.21
23,CN(Cc1ccccc1)Cc1nc2c(c(=O)n(C)c(=O)n2C)n1Cc1ccccc1Cl,-5.53

row,Compound,"hERG current change (%, negative = inhibition) at 1uM [%]"
1,Cc1ccccc1OCC(=O)N/N=C/C=C/c1ccccc1,12.5
2,O=C(Nc1c2c(nn1-c1ccc(F)cc1)CS(=O)C2)C12CC3CC(CC(C3)C1)C2 (stereo not drawn),21.3
3,O=C(Cn1cccc(C(F)(F)F)c1=O)c1ccc(Cl)cc1,9.28
4,COc1ccccc1/C=C/C=N/N1CCN(c2ccccn2)CC1,10.1
5,NC(=S)NNC(=O)c1cccc(Br)c1,1.45
6,Cc1ccc(NC(=O)C2CCCN(S(=O)(=O)c3c(C)noc3C)C2)c(Br)c1 (stereo not drawn),22.5
7,CCN1CCN(c2nc3c(c(=O)n(C)c(=O)n3C)n2CCSc2nccc(C)n2)CC1,6.84
8,CCOC(=O)C(NC(C)=O)(Nc1ccc(F)cc1)C(F)(F)F (stereo not drawn),0.534
9,C=CCn1c(O)c(C=Nc2ccc(F)cc2)c(=O)[nH]c1=O,12.4
10,COc1cc(C(=O)Nc2ccc(-c3nnc(-c4ccco4)o3)cc2)cc(OC)c1OC,4.71
11,O=C(Nc1ccc2nc(-c3cccs3)c(-c3cccs3)nc2c1)N1CCOCC1,7.6
12,COc1cc(NC(=O)CSc2nc3ncnc(N)c3[nH]2)c(C(=O)O)cc1OC,15.3
13,CCOP(=O)(OCC)C(O)c1ccc(Br)cc1 (stereo not drawn),13
14,Cc1ccc(NC(=O)C(C)S)cc1 (stereo not drawn),12.4
15,CCOC(=O)C1=C(C)N[C@@]2(O)c3ccccc3C(=O)[C@@]12O,7.65
16,Cc1csc(SCC(=O)NC(=O)NC(C)C)n1,11.6
17,NNc1nc2ccccc2c(=O)n1Cc1ccccc1,14.6
18,Cc1ccc(C(C(=O)NCc2ccco2)N(C(=O)CNC(=O)c2cccs2)c2c(C)cc(C)cc2C)cc1 (stereo not drawn),3.63
19,Cc1ccc(NC(=O)c2ccnc(C(C)(C)C)c2)cc1,-2.03
20,COc1cc2c(cc1OC)C(c1ccccc1O)NCC2 (stereo not drawn),10.8
21,CCOC(=O)C1CCN(S(=O)(=O)c2ccc3c(c2)CC(C)N3C(=O)C2CCC2)CC1 (stereo not drawn),13.7
22,CCN(c1ccccc1)S(=O)(=O)c1ccc(Cl)c(NC(=O)COC(=O)c2ccc[n+]([O-])c2)c1,-1.23
23,Cc1c(Cl)cccc1NC(=O)CCCn1nc([N+](=O)[O-])cc1C,6.73

row,Compound,"hERG current change (%, negative = inhibition) at 1uM [%]"
1,Cc1ccc(OCC(=O)N/N=C/c2cc([N+](=O)[O-])ccc2N2CCCCC2)cc1,-8.13
2,N#CCC(=O)Nc1ccc(C(=O)OCC(=O)NNC(=O)c2cccs2)cc1,-11.9
3,Cc1cc(SCC(=O)OCC(=O)NC(C)c2ccccc2)c(C)cc1Br (stereo not drawn),17.4
4,CCOC(=O)c1oc2ccc(S(=O)(=O)N3CCOCC3)cc2c1C,-5.18
5,O=C(Cc1nc(-c2ccc([N+](=O)[O-])cc2)cs1)Nc1ccccc1,-2.73
6,COc1ccc(C(=O)CC(=O)C(=O)Nc2cc(C)ccc2C)cc1,5.04
7,CNS(=O)(=O)c1cccc(C(=O)OCc2cc(Cl)cc3c2OCOC3)c1,2.49
8,CSC1=NC(C)N2C(SC)=NC(C)N12 (stereo not drawn),15.5
9,COCCn1c(SCC(=O)NCc2ccc3c(c2)OCO3)nnc1-c1c[nH]c2ccccc12,4.01
10,Cn1cc(C(=O)c2ccccc2)cc1-c1nc2ccccc2n1C,-0.481
11,Cc1cn(C(=O)c2ccccc2)c(=S)n1-c1ccc(Br)cc1,18.8
12,Cc1nc(CN2CCN(Cc3nc(C(c4ccccc4)c4ccccc4)no3)CC2)cs1,-4.18
13,CC(C1CC1)N(C(=O)c1ccccc1O)c1ccccc1 (stereo not drawn),11.1
14,COc1ccc(NC(=S)NNC(=O)c2cccnc2)cc1OC,14.7
15,COCc1c(C(=O)N/N=C(/C)c2cccs2)nnn1-c1nonc1N,18.2
16,O=C(N/N=C/c1ccccc1F)NC12CC3CC(CC(C3)C1)C2,15.6
17,CCCCN=CC1=C(O)CC(c2ccccc2)CC1=O (stereo not drawn),9.46
18,Cl.OC(COc1ccccc1F)CN1CCC(Cc2ccccc2)CC1 (stereo not drawn),-55.7
19,Nc1nc(CN2CCN(C(c3ccccc3)c3ccccc3)CC2)nc(Nc2ccccc2)n1,10.2
20,Cc1ccc2oc(=O)cc(CN3CCOCC3)c2c1,3.25
21,COc1ccc2nc(/N=C(\N)NC(=O)C(C)(C)C)nc(C)c2c1,3.44
